# From PubChem BioAssay AID624418 (National Center for Advancing Translational Sciences (NCATS), 2012)
# “And” between values parts separate entries of the source, which are not always exact repeats. Equal entries are not always repeated. The whole screen tested about 410,000 compounds, of which about 530 (0.13%) were called active. The shares of active, inactive and inconclusive entries below differ from those in the screen. Calls come from the whole dose curve; as a rule, active = well fitted inhibition curve with a large enough effect; inconclusive = small, poorly fitted or top-dose-only effect, or another doubt; inactive = no such curve, though single readings can be large or run the other way. A potency beside an inconclusive call is a rough fit, not a confirmed value.
# Test: qHTS of GLP-1 Receptor Inverse Agonists: Cytotox Screen
# Settings: HEK293 cAMP-luciferase reporter cells, luminescence, 24 h; series mostly up to 38.3 µM
# How it was run: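 To flag toxic compounds, the library was rerun on cells for 24 hr at 37 deg C and 5% CO2. Viability-linked luminescence was captured 12 min after adding luciferase detection reagent.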
# Potency is the fitted concentration of half-maximal effect.
row,Structure (SMILES),Potency
1,O=C(NCCc1ccccc1)C(NS(=O)(=O)c1cccc2nsnc12)c1ccccc1 (stereo not given),"inconclusive: 25.1 µM [inhibitor, partial curve, poor fit]"
2,COc1ccc(CCNC(=O)CCCNC(=O)Cn2cnc3sc(C)c(C)c3c2=O)cc1OC,inactive
3,CSc1ccc2c(c1)N(CCC1CCCCN1C)c1ccccc1S2 (stereo not given),"inconclusive: 31.6 µM [inhibitor, single point]"
4,COc1ccc(-n2nc(C#N)c(Cl)cc2=O)cc1,"inconclusive: 3.55 µM [inhibitor, full curve, poor fit]"
5,CCCCC[C@H]1CN(CCCC)C(=O)[C@@H]1CC(=O)NCc1ccc(OC)cc1,"inconclusive: 0.501 µM [inhibitor, full curve, poor fit]"
6,CCCN(CC(=O)Nc1ccc(Cl)cc1Cl)C(=O)/C=C/c1cccc([N+](=O)[O-])c1,"inconclusive: 10 µM [inhibitor, single point]"
7,Oc1ccc(N=Nc2ccc(Br)cc2)c(O)c1,"inconclusive: 11.2 µM [inhibitor, single point]"
8,COc1ccccc1N(CCOc1ccccc1)S(=O)(=O)c1ccccc1,"inconclusive: 28.2 µM [inhibitor, single point]"
9,COC(=O)c1ccc(OCC(O)CNC2CCCC2)cc1 (stereo not given),inactive
10,Cc1noc(C)c1COc1cccc(C(=O)OCC(=O)N2CC(=O)Nc3ccccc32)c1,"inconclusive: 3.16 µM [inhibitor, partial curve, poor fit]"
11,Cc1ccc(NC(=O)Nc2nnc(Cc3ccc([N+](=O)[O-])cc3)s2)cc1C,"inconclusive: 10 µM [inhibitor, single point]"
12,O=C(OCc1cccc(C(F)(F)F)c1)c1cc(S(=O)(=O)N2CCOCC2)ccc1F,"inconclusive: 28.2 µM [inhibitor, single point]"
13,CC(C)CC(N)c1cn([C@@H](CCC(=O)O)C(=O)N2CCNCC2)nn1 (stereo not given in full),inactive
14,CC1(c2ccc(OC(F)F)cc2)NC(=O)N(CC(=O)Nc2ccc(F)cc2)C1=O (stereo not given),inactive
15,O=S(=O)(/N=C(/Nc1ccccn1)c1ccccc1)c1ccccc1,"inconclusive: 1.41 µM [inhibitor, full curve, poor fit]"
16,OC1(c2cccc(C(F)(F)F)c2)CCN(CCN2CCCCC2)CC1,"inconclusive: 20 µM [inhibitor, single point]"
17,COc1ccc(C)c(Cn2c(-c3nonc3N)nc3ccccc32)c1,"inconclusive: 5.01 µM [inhibitor, partial curve, poor fit]"
18,Cc1ccc(S(=O)(=O)N(CC(=O)Nc2cccnc2)c2cccc(Br)c2)cc1,inactive
19,COc1ccc(NC(=O)CN(C)C(=O)/C=C/c2cn(-c3ccccc3)nc2-c2ccc(F)cc2)cc1,"inconclusive: 28.2 µM [inhibitor, single point]"
20,Cc1c(/C=C/C(=O)c2ccc(Cl)s2)cnn1C,"inconclusive: 1 µM [inhibitor, full curve, poor fit]"
21,O=C(CCc1ccccc1)Nc1cccc(-c2nnc(-c3ccco3)o2)c1,"inconclusive: 12.6 µM [inhibitor, single point]"
22,Cc1cc(NC(=O)CCC(=O)N(c2ccccc2)C(C(=O)NC2CCCC2)c2ccc(F)cc2)no1 (stereo not given),"inconclusive: 7.08 µM [inhibitor, partial curve, poor fit]"

row,Structure (SMILES),Potency
1,CC(C)NC(=S)N/N=C/c1cccs1,"inconclusive: 1.41 µM [inhibitor, full curve]"
2,CN(C)C(=S)NCc1ccccc1,inactive
3,CCc1ccc(NC(=S)NC2CC3CCCC(C2)N3Cc2ccccc2)cc1 (stereo not given),"inconclusive: 20 µM [inhibitor, single point]"
4,CCOc1ccc(CC2NCCc3cc(OCC)c(OCC)cc32)cc1OCC (stereo not given),inactive
5,COc1ccccc1N1N=C(c2ccc([N+](=O)[O-])cc2)CC1c1ccccc1 (stereo not given),"inconclusive: 11.2 µM [inhibitor, single point]"
6,CCOC(=O)C1CCCN(C(=O)c2cc3c(-c4cccc(OC)c4)nn(C)c3s2)C1 (stereo not given),"inconclusive: 6.31 µM [inhibitor, partial curve]"
7,CCOc1ccccc1NC(=O)Nc1cc(C(=O)NCc2ccc(C)cc2)ccc1N1CCCC1,inactive
8,COc1cc2c3c(cccc3c1)C(=O)N(CCN1CCCC1)C2=O,inactive
9,Cc1cc(C(=O)NCc2cccnc2)n(-c2ccccc2)n1,"inconclusive: 8.91 µM [inhibitor, partial curve]"
10,CC1=C(/C=C/C(C)=C/C=C/C(C)=C\C(=O)O)C(C)(C)CCC1,inactive
11,CC(=O)c1ccc(NC(=O)CSc2nc(C3CC3)nc3ccccc23)cc1,"inconclusive: 12.6 µM [inhibitor, single point]"
12,O=C(Cn1ncc(Cl)c(Cl)c1=O)c1ccc2c(c1)OCCO2,"inconclusive: 11.2 µM [inhibitor, partial curve, poor fit]"
13,CCN(CC)c1ccc(/C=N/Nc2nc3ccccc3[nH]2)cc1,"inconclusive: 15.8 µM [inhibitor, partial curve, poor fit]"
14,CCC1CCc2c(sc(NC(=O)c3ccoc3C)c2C(N)=O)C1 (stereo not given),"inconclusive: 31.6 µM [inhibitor, single point]"
15,CNc1ccc(NC(C)=O)cc1[N+](=O)[O-],"inconclusive: 7.94 µM [inhibitor, partial curve]"
16,CC1(C)CC(=O)C2=C(C1)NC1=C(C(=O)c3ccccc31)C2c1cc([N+](=O)[O-])ccc1O (stereo not given),"inconclusive: 17.8 µM [inhibitor, partial curve, poor fit]"
17,COc1ccc(CNC(=O)CCc2c(C)c3ccc(OC)c(C)c3oc2=O)cc1OC,"inconclusive: 28.2 µM [inhibitor, single point]"
18,CN(C)CCCN(Cc1ccccc1)C(=S)Nc1cccc(C(F)(F)F)c1,"inconclusive: 22.4 µM [inhibitor, single point]"
19,Cc1ccnc(NC(=O)CCCOc2cc(=O)n(C)c3ccccc23)c1,"inconclusive: 28.2 µM [inhibitor, single point] and inconclusive: 7.08 µM [inhibitor, partial curve, poor fit]"
20,CN(CC(=O)Nc1ccccc1Cl)C(=O)COC(=O)c1cc([N+](=O)[O-])ccc1N1CCOCC1,"inconclusive: 11.2 µM [inhibitor, single point]"
21,CN(C)CC(O)c1ccc(C=Cc2ccc(Cl)cc2)cc1 (stereo not given),"inconclusive: 7.08 µM [inhibitor, partial curve, poor fit]"
22,N#Cc1ccc(C(=O)NCC(c2ccco2)N2CCCCC2)cc1 (stereo not given),inactive

row,Structure (SMILES),Potency
1,COc1cccc(NC(=O)c2cc(-c3ccncc3)nc3c(C)cc(C)cc23)c1,"inconclusive: 15.8 µM [inhibitor, single point]"
2,Fc1cccc(Cl)c1CNc1ccc(N2CCCC2)cc1,"inconclusive: 14.1 µM [inhibitor, single point]"
3,Cc1nn(C)c(C(=O)Sc2cccc(Cl)c2)c1[N+](=O)[O-],inactive
4,O=[N+]([O-])c1cc([N+](=O)[O-])c(Oc2c(F)ccc(F)c2F)cc1NN1CCCCC1,"inconclusive: 12.6 µM [inhibitor, single point]"
5,CCC(Sc1ncccc1C(=O)Oc1ccccc1Cl)C(=O)Nc1ccccc1OC (stereo not given),inactive
6,CCN(CC)CCN1C(=O)C(O)=C(C(=O)c2cc3ccccc3o2)C1c1cccnc1 (stereo not given),inactive
7,O=C1CCC(=O)N1CCSC(=S)N1CCSCC1,"inconclusive: 28.2 µM [inhibitor, single point]"
8,Cc1ccc(-c2nnc(-c3ccc4ccccc4c3)o2)cc1,inactive
9,CCc1ccc(CNC(=O)C2CCN(c3nnc(C)c4c(C)n(-c5ccc(C)cc5)nc34)CC2)cc1,"inconclusive: 28.2 µM [inhibitor, single point]"
10,CN1CCN(C(=S)NC(=O)c2ccccc2Br)CC1,"inconclusive: 28.2 µM [inhibitor, single point]"
11,NC(N)=N/N=C/c1ccc(OCc2ccc(Cl)cc2)cc1,"inconclusive: 11.2 µM [inhibitor, single point]"
12,Cc1nnsc1S(=O)c1ccc(Br)cc1 (stereo not given),"inconclusive: 0.501 µM [inhibitor, full curve, poor fit]"
13,O=C(Nc1ncc([N+](=O)[O-])s1)C1CCN(S(=O)(=O)c2cnc[nH]2)CC1,"inconclusive: 10 µM [inhibitor, partial curve, poor fit]"
14,CN(C)C(CNC(C(=O)Nc1ccc([N+](=O)[O-])cc1Br)c1ccccc1)c1ccccc1 (stereo not given),"inconclusive: 28.2 µM [inhibitor, single point]"
15,COc1ccc(CNC(=O)CSc2nc(-c3ccccc3)cc(-c3cccs3)c2C#N)cc1,inactive
16,CCCCN(CCCNC(=O)C1CCN(C(=O)c2cc3sccc3n2C)CC1)Cc1ccccc1,"inconclusive: 11.2 µM [inhibitor, single point]"
17,CCCCNc1nc(Oc2ccc(=O)n(-c3ccccc3)n2)nc(N(CC)CC)n1,inactive
18,Cc1cccnc1NC(=S)NCc1ccco1,"inconclusive: 7.94 µM [inhibitor, partial curve, poor fit]"
19,NNc1nc(-c2ccccc2)c2ccccc2n1,"inconclusive: 22.4 µM [inhibitor, single point]"
20,CCCCCC(=O)N1C[C@H](n2cc(-c3ccc(F)cc3)nn2)[C@@H](O)C[C@@H]1c1ccc(Cl)cc1,"inconclusive: 28.2 µM [inhibitor, single point]"
21,O=C(/C=C/c1cccs1)Nc1sc2c(c1C(=O)O)CCCC2,"inconclusive: 17.8 µM [inhibitor, partial curve, poor fit]"
